# Experimental data as given in the supplement of paper PMC11417369.
# ± gives the standard deviation of the averaged measurements. This is one part of the list.
# System: PfAP2-G AP2 domain (GST-tagged)
# Test: gcPBM binding intensity (ln(normalized median fluorescence intensity)); higher = stronger DNA binding
# Method in brief: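 Binding intensity values are the highest Masliner-normalised natural-log median intensity among replicate spots of either probe orientation. The binding step lasted 1 h in 1× PBS with 1% milk, 0.2 mg/ml BSA, 0.5% salmon testes DNA and 0.03% Triton X-100, using GST-tagged P. falciparum DNA-binding domains expressed in E. coli on an Agilent 4 × 180k array of primer-extended double-stranded 36-bp intergenic genomic probes plus negative controls. Alexa488 anti-GST antibody and a 488 nm scan detected bound protein.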
row,Sequence,gcPBM binding intensity (ln)
1,ATATAATGTTATAGAAGTACATGAAATACTTATTTA [XGTACX_site8850],11.3 ± 0.95
2,TTTAATTTGTTATACACACACAAAAAAAGTTATAAA [CACACA_site7779],10.1 ± 0.18
3,TCTTTCTTATATTTATATAATTATATTTATTTTATA [GTGCAC_negctrl_site300],9.685 ± 0.035
4,GGAATACAGGAAAAAAGTACAGAAAATGGAATATTA [XGTACX_site5053],11.5 ± 0.96
5,AACATTTATAAATATTGTACATATAGATTTATATAT [XGTACX_site2662],10.9 ± 0.59
6,AAAATAAAATAACGTTGTACAACATCATTTCTATAT [XGTACX_site5080],11.3 ± 0.74
7,AACAATATATTGAATAGTACATATATATAAACATAT [XGTACX_site2811],11 ± 0.7
8,TATAAATATTACGGTAGTACTATACATATATATAAT [XGTACX_site7442],11.1 ± 0.62
9,TTAGAAACATTGAAAGCATGCAATATTACTTTATAC [TGCATGCA_site522],9.81 ± 0.099
10,TCCTTATATTTGCACACACACACAAGAAAATGAAAA [CACACA_site6613],10.5 ± 0.52
11,TTTTTTTTTCCCGTAAATATTGAGACAACCATAATG [CACACA_negctrl_site41],10.6 ± 0.54
12,TATTTTTATTTAGGACGTACAAAAATAAATCATATT [XGTACX_site1448],11.6 ± 0.64
13,TTAAAAATATATATAACACACACATAATATATATAT [CACACA_site8811],9.96 ± 0.23
14,CATATAAAAAGACACACACACACATATATATATATA [CACACA_site940],10.5 ± 0.77
15,CAGGAGAGTAAAAGAGTGCGAATTATTATTTTGGAG,9.75 ± 0.2
16,GGCATATATATATGCACACATACATAAATACATGTG [CACACA_site5999],10.4 ± 0.26
17,AGACATTAATGAAGGTGTACATATATTTGACAGAAT [XGTACX_site655],11.6 ± 1
18,TCCCTAGTATACCTTAGTACATATATTATTTTGCAC [XGTACX_site2174],10.9 ± 0.57
19,ATAAAAAACTCAGAGCGTACATAATTTTTTCTATTT [XGTACX_site2803],11.3 ± 0.78
20,TAACCATACATACATACACACACACCCACATATATA [CACACA_site8951],10.1 ± 0.18
21,TATATATTCAAATGTGCATGTAAAAAAAAAAAAAAG [TGCATGCA_site126],10.1 ± 0.3
22,AAGTTGGAAAGGTTATGTACTTATTTTTTAAAATAA [XGTACX_site204],11.6 ± 1.1
23,TATATAATATAATTGACATGCAACCATTTTCGTGAA [TGCATGCA_site458],10.1 ± 0.2

row,Sequence,gcPBM binding intensity (ln)
1,TCATTCATATGTTACACACACACACGCACATAAAAA [CACACA_site7514],10.5 ± 0.35
2,CAGGCGTGAAATATACGTACACACATTATTTATATT [XGTACX_site5337],11.8 ± 0.94
3,TTTTGTTACGGCAAGGAAGTTAAGCATAAATGAATG [GTGCAC_negctrl_site173],10.1 ± 0.16
4,ATATAAATTATTTACACACAAACATTTATACTTTTA [CACACA_site3448],9.96
5,TAATAATAGTCTAATACATGCATCGATAACGGAACT [TGCATGCA_site98],9.79 ± 0.042
6,ATGTTAATAACTTGTGGTACTGTTATAATTTAGTAA [XGTACX_site2114],10.9 ± 0.54
7,ATATTTTTTGCTATTACACACAAGGGATTATTATTT [CACACA_site7776],10.2 ± 0.23
8,AAGAAAAAAAATATATATGTATATATTATTTTAACA [TGCATGCA_negctrl_site534],9.54 ± 0.27
9,ATATATCTACTGTGTTGTACTGTTAATATTTGAATA [XGTACX_site1931],10.9 ± 0.63
10,ATATAAGTGTATCTAACACACAAATATGTAAAAATG [CACACA_site7006],10.2 ± 0.23
11,TATATACACATATATACACACACATATATATATATA [CACACA_site9127],10.2 ± 0.2
12,TGAAAGAATTAATTTTGTACATATAAAAATTTTATT [XGTACX_site8500],10.7 ± 0.47
13,AAAATTACTATATGAACACACATGATTAGATATATG [CACACA_site3083],9.98 ± 0.014
14,TATATATATATATACACACACACCCTAAAAATATAT [CACACA_site1611],10.2 ± 0.22
15,AATAAATAAATAATATAATGAAATTATAAAATGTGG [TGCATGCA_negctrl_site385],9.71 ± 0.16
16,AAATGAAATTTGTATACACACAAATATATTTATATA [CACACA_site6525],9.95 ± 0.085
17,TATTTGTGCCAAAAATGAAAAAGTTTGTATAAAACC [CACACA_negctrl_site1406],10.1 ± 0.17
18,TTTTTATTTTTAAAGGCACACACATTTTTATTTTTA [CACACA_site8624],10.2 ± 0.26
19,GATGGATTTATTTAAAGTACATATTTAAAAAACTGT [XGTACX_site7567],11.3 ± 0.88
20,TTTCTCCCATTTTTTAGTACACAAAATATATATGTA [XGTACX_site7218],11.7 ± 1.1
21,AAAGTAAAAGAAAGCACACACACATGTATATATGTA [CACACA_site3857],9.85 ± 0.2
22,AATGATCATAAATACACACACACAAAAAAAAAAAAA [CACACA_site6072],9.97 ± 0.44
23,TATTAAAAAAATGTATGTACATATATAAATTTTTTT [XGTACX_site1094],11.2 ± 0.8

row,Sequence,gcPBM binding intensity (ln)
1,AACAACAATTTCGTCATACACACATTCAGAATATAT [CACACA_site2371],10.1 ± 0.11
2,AAAAAAAAAAAATATACACACACATATATATATATA [CACACA_site9123],9.93 ± 0.48
3,AATTTTTTTTTAATCATGCACACTGTTAAAAGAATA [CACACA_site1240],10.2 ± 0.33
4,TTTTAAAAATTAAGTGCATGTCCTTATAAAAAAAAA [TGCATGCA_site845],10.7 ± 0.55
5,TTCATATATTTAGGACGTACTTTTATATTACTATAT [XGTACX_site6456],11.2 ± 0.73
6,TTTATATCATTACAAGTGCATATCATCATAAATTCT [GTGCAC_site9878],9.92 ± 0.099
7,TCTTGATTATATAGTACTACACATTATAAAAAAATT [XGTACX_site2465],11.3 ± 0.75
8,ATATGGAATAATACGCGTACACACATATATATATTA [XGTACX_site307],11.7 ± 1
9,TATATATAAATATATGTGCACTTTTTATATTTATAT,10.3 ± 0.38
10,TATAATGAGGATGATAGTACGTATTAGTATAAAAAA [XGTACX_site6623],11.1 ± 0.6
11,TTTATATATATTTATACACACAAACATAATACTACT [CACACA_site5161],10.3 ± 0.25
12,TTTTTAATTTTATATACACACATAAAATATATGAAG [CACACA_site3145],10 ± 0.28
13,ATTTTTTTTTTTTTTTTGGGGGGGTATACTTTTAAA [CACACA_negctrl_site1020],11.9 ± 0.77
14,TTCCTTTTTTTTTATTGTACAAAAATATCAAAAAGG [XGTACX_site8505],11 ± 0.58
15,AATTATATAACAAATTGTACGAATGAAAATATTATT [XGTACX_site4237],10.7 ± 0.38
16,ATAGAATAAATTTTGTCATTTATTCCTTATATATAA [GTGCAC_negctrl_site227],9.85 ± 0.085
17,TAAAAATAGGAATACGCACACGATGATTAATTTATA [CACACA_site1835],10.3 ± 0.22
18,ATTAAAGGAAGCAAAACATGCAACAGCAATATTGCA [TGCATGCA_site452],9.665 ± 0.007
19,TGTTATTATAACATTTTTTTCAAAATAGCTTTAGAA [CACACA_negctrl_site266],9.88 ± 0.26
20,ATAATACCCAAGCACACACACACACCGATATATATA [CACACA_site8344],10.4 ± 0.28
21,AATTTATAAGAATAAAGTACTAAAGATACAACTTTA [XGTACX_site7153],10.9 ± 0.63
22,AAAAAAAAAAAAAACACACAGAACAATATATAAATA [CACACA_site982],9.82 ± 0.15
23,AAAAAAAAATACAAAATAGCAATAAATACACAAACG [GTGCAC_negctrl_site707],10.2 ± 0.19

row,Sequence,gcPBM binding intensity (ln)
1,AAAAAAAAAAAAAAAACATGCACAAATTATAAGTGA [TGCATGCA_site378],10.2 ± 0.2
2,ACTACATAATACTATTCACACATTTTTTTTTTTTTT [CACACA_site5794],9.9 ± 0.18
3,ATATATTGGAGCACAACACACACAAGTATATATATG [CACACA_site8435],10.5 ± 0.26
4,TTTATTGAATAAAATGCACACGCATGCGTTATTTAT [CACACA_site9154],9.985 ± 0.035
5,TATATGTTATATTTAACACACATATAAGGTACATAT [CACACA_site612],11.2 ± 0.85
6,TTCTCATAATTAAATAGTACATATTTTAATAATCAC [XGTACX_site6116],11 ± 0.74
7,TACATGAATATATAAAGAAAAAAAAAAAAACACACA [XGTACX_negctrl_site350],10.1 ± 0.16
8,TATAAATTATATATTTGTACGTATATCACATATATA [XGTACX_site7053],11.3 ± 0.84
9,TTAAAAAAAATTATTTGTACTTAAAAATTTTATATT [XGTACX_site8751],11.2 ± 0.86
10,AGAAAAAAAAAACACACACACACACCGTCAATATAA [CACACA_site7895],9.945 ± 0.007
11,TTTTTAAACCATGTTGTGCACATTTTTTTTGGATTT,10.4 ± 0.23
12,TGTTAAAGAGAAAGTACTACACATATTATGTGTTTT [XGTACX_site1435],11 ± 0.66
13,TTTTATAAACAGAGGGGTACGGGAAAAAAAAAAAAA [XGTACX_site1480],11.1 ± 0.94
14,AAAATTATATATTATAGTACATAAAATTTTGATATA [XGTACX_site994],10.9 ± 0.56
15,TATTAAAAATGTTAAGTGCAAAAATAAAAATTGTGG [GTGCAC_site9854],10.2 ± 0.17
16,TTAGTTATTATAATTTGTACACAAATGGTAAAGTAT [XGTACX_site2343],11.2 ± 0.71
17,TTTGTACCGGCATTTTTTTTTTCTTTTTTTTTCCAA [XGTACX_negctrl_site323],10.9 ± 0.6
18,AAAAAAAAAAAAATCTCACACATAAAGAGATTATGA [CACACA_site4408],9.615 ± 0.092
19,TTGAAAGAAAATAAAATAAAATAAAATAAAATAAAA [CACACA_negctrl_site859],9.45 ± 0.014
20,ATATATATGTATTTATGTACATATTATTTTTCTTAA [XGTACX_site8169],11.2 ± 0.72
